# Measured values reported in PubChem BioAssay AID493208 (National Center for Advancing Translational Sciences (NCATS), 2011).
# Among all 44,000 compounds or so, about 340 (0.77%) were called active. Inconclusive results (about 5%) are left out. Calls follow the shape of the dose curve; as a rule, active = well fitted inhibition curve with a large enough effect; inconclusive = small, poorly fitted or top-dose-only effect; inactive = flat fitted curve, though single readings scatter. The list shows a part of the results.
# Assay: Acumen qHTS Assay for Inhibitors of the mTORC1 Signaling Pathway in MEF (Tsc2-/-, p53-/-) Cells: Sytravon;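 also: plate controls were DMSO for no effect and rapamycin for full effect; nearly all actives have a fitted effect of over 50% in size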
# Conditions: phospho-rpS6 immunofluorescence/PI, 24 h; series mostly up to 38.3 µM; activity change, negative = inhibition: at the top concentration
# Procedure, shortened: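 Immunofluorescence of rpS6 phosphorylation in Tsc2-/-, p53-/- MEFs after 24 h compound exposure, normalized to propidium iodide signal. Activity is expressed as % positive cells, thresholded with 7.5 nM rapamycin.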
row,Structure (SMILES),"activity change, negative = inhibition"
1,Cn1cnc(S(=O)(=O)N2CCCC(C(=O)Nc3ccc(F)cc3Cl)C2)c1 (stereo not given),inactive: 0%
2,COc1ccc2c(c1)CC(NC(=O)Nc1cc(Cl)ccc1OC)CO2 (stereo not given),inactive: -16.4%
3,COc1cccc(C(=O)Nc2ccc(Cl)c(-c3nc4ccccc4[nH]3)c2)c1,inactive: -32.3%
4,CSc1nc(C)cc(Nc2c(C)cc(C)cc2C)n1,inactive: -3.08%
5,CCc1ccc(OCCCSc2nc(-c3ccc(C(C)(C)C)cc3)nc3cc(=O)[nH]n23)cc1,inactive: -13.4%
6,COC(=O)c1ccc(NS(=O)(=O)c2ccc(-n3cccn3)cc2)cc1,inactive: -10.2%
7,Cc1ccc(S(=O)(=O)c2cn(C)c3cc(N4CCCCCC4)c(F)cc3c2=O)cc1,inactive: -8.39%
8,Cc1ccccc1NC(=O)c1ccc2nc(Cc3ccccc3)oc2c1,inactive: -10.7%
9,CC(=O)c1ccc(NS(=O)(=O)c2cc(-c3cnc(C4CC4)o3)ccc2C)cc1,inactive: -19.5%
10,O=C(CCSCc1cnn(-c2ccccc2)c1-n1cccc1)NCc1ccccc1F,inactive: 5.16%
11,CCOc1ccc(NC(=O)c2cc3c(-c4ccccc4F)nn(C)c3s2)cc1,inactive: -2.64%
12,Cn1c(SCc2ccc(F)cc2)nc2c([nH]c3ccccc32)c1=O,inactive: 2.88%
13,Cc1ccc(Cn2c(=O)n(-c3ccccc3)c(=O)c3ccc(C(=O)NCc4ccco4)cc32)cc1,inactive: -7.32%
14,C=Cc1ccc(Cn2c(C(=O)O)c(CNCc3cccs3)c3ccc(C)cc32)cc1,inactive: -23.7%
15,CCOC(=O)c1c(C)oc2nc(C)nc(N3CCN(c4ccc(C(C)=O)cc4)CC3)c12,inactive: 0.561%
16,COc1cccc(C(=O)N(Cc2sccc2C)C2CCS(=O)(=O)C2)c1 (stereo not given),inactive: 3.59%
17,CC(C)(C)OC(=O)N1CCC(c2c(C(=O)NCc3ccc(F)cc3)cnn2-c2ccc(F)cc2)CC1,inactive: -4.2%
18,COc1ccc(OCC2c3cc(OC)c(OC)cc3CCN2C(=O)c2ccc(F)cc2)cc1 (stereo not given),inactive: 0.969%
19,CCN(CC)CCNC(=O)c1sc2nc3n(c(=O)c2c1C)CCCCC3,inactive: -3.66%
20,COc1ccc(C(=O)Nc2cc(-c3cccc(C)c3)nn2-c2ccccc2)cc1,inactive: 0%
21,Cc1ccc(-c2cn3c(n2)sc2cc(C(=O)NCCCN4CCCCC4)ccc23)cc1,inactive: 7.03%
22,COc1ccc2cc3cc(C(=O)N4CCN(c5ccc(C(C)=O)cc5)CC4)sc3nc2c1Cl,inactive: -2.25%
23,CCOC(=O)c1ccc(NC(=O)c2c(NCc3cccs3)sc3c2CCCCC3)cc1,inactive: -21.5%
24,O=S(=O)(NCc1nc2cccnc2n1Cc1ccc(F)cc1)c1ccc2c(c1)CCCC2,inactive: -0.0642%

row,Structure (SMILES),"activity change, negative = inhibition"
1,O=S(=O)(NCCc1csc2nc(-c3ccc(F)cc3)nn12)c1ccc(Br)cc1,inactive: -15.6%
2,Cc1cc(NC(=O)Cn2c(=O)nc(-c3ccccc3F)c3cc(Cl)ccc32)ccc1Br,inactive: -6.22%
3,CC1=C(C(=O)Nc2ccccc2C)C(c2ccncc2)n2nc(SCc3ccccc3)nc2N1 (stereo not given),inactive: 0.639%
4,COc1cccc(CSc2nc3n(n2)C(c2cccs2)C(C(=O)Nc2ccccc2C)=C(C)N3)c1 (stereo not given),inactive: -0.96%
5,COc1cn(CC(=O)Nc2ccc(F)cc2)c(CN2CCCCC2)cc1=O,inactive: -3.06%
6,CCOC(=O)c1c(N)n(-c2ccc(Cl)c(Cl)c2)c2nc3ccccc3nc12,inactive: 0.609%
7,Cc1ccc(NC(=O)Cn2c(=O)n(-c3ccc(Cl)c(Cl)c3)c(=O)c3c(C)c(C)sc32)c(C)c1,inactive: -10.4%
8,Cc1cccc(Cn2c(CN3CCC(C(=O)NCc4cccnc4)CC3)cc3ccccc32)c1,inactive: -3.04%
9,CCOC(=O)c1ccc(NC(=O)CC2C(=O)N(c3cccc(OC)c3)C(=O)N2C2CCCCC2)cc1 (stereo not given),inactive: -13.5%
10,Cc1ccc(OCCn2cc(C(=O)C3CCCCC3)c3ccccc32)cc1,inactive: -15.1%
11,COc1nc(-c2ccc(C)cc2)ccc1-c1noc(-c2ccccc2Br)n1,inactive: -1.8%
12,COC(=O)c1ccc(Cl)cc1NC(=O)N1CCCn2nc(C)cc21,inactive: -0.381%
13,O=c1c2cccnc2n(Cc2ccccc2F)c(=O)n1Cc1ccccc1Cl,inactive: 0.0263%
14,Cc1ccc(C)c(N2CCN(C(=O)CN3CCSc4ccc(S(=O)(=O)N(C)C)cc43)CC2)c1,inactive: -0.892%
15,CC(=O)Nc1nonc1-c1nnc(SCC(=O)Nc2cc(C)cc(C)c2)n1C,inactive: -13.4%
16,CCCCOC(=O)CSc1nnc(-c2ccccc2)o1,inactive: 0.574%
17,Cc1oc2ncn(CC(C)C)c(=O)c2c1C(=O)N1CCN(c2ccc(F)cc2)CC1,inactive: 0.891%
18,COc1ccccc1CNc1ccc(-c2nc(C)no2)cc1[N+](=O)[O-],inactive: -2.95%
19,O=C(c1ccc(C(F)(F)F)cc1)N1CCC(c2nc(-c3ccc(S(=O)(=O)N4CCCC4)cc3)no2)CC1,inactive: -2.76%
20,COc1cccc(NC(=O)/C(C#N)=C\c2cn(Cc3ccc(C)cc3)c3ccccc23)c1,inactive: 13.6%
21,COc1ccc(-c2oc3ncn4nc(-c5ccccc5Br)nc4c3c2-c2ccc(OC)cc2)cc1,inactive: 6.63%
22,Cc1ccc(C)c(NC(=O)Cn2cc(C(=O)C3CCCCC3)c3ccccc32)c1,inactive: 2.78%
23,O=C(c1ccc2c(c1)N(Cc1cccc(Cl)c1)C(=O)c1ccccc1S2(=O)=O)N1CCCCC1,inactive: -0.971%
24,Cc1ccc2[nH]c3c(=O)n(CC(=O)N(C)c4cc(Cl)ccc4C)ncc3c2c1,inactive: -2.37%

row,Structure (SMILES),"activity change, negative = inhibition"
1,COc1cccc2c1Oc1ncccc1N(C(=O)CCC(=O)NCc1ccc(N(C)C)cc1)C2,inactive: -2.14%
2,COc1cccc(NC(=O)c2oc3ccccc3c2NC(=O)c2ccc(C(F)(F)F)cc2)c1,inactive: 0.888%
3,O=C(CN1CCCN(Cc2ccc(Cl)cc2)S1(=O)=O)Nc1ccccc1F,inactive: 0.202%
4,CCOC(=O)c1c(C)[nH]c(C)c1S(=O)(=O)N1CCC(C(=O)N2CCN(c3ccc(Cl)cc3)CC2)CC1,inactive: -3.71%
5,COc1ccc(-n2c(=O)c3c4c(sc3n(Cc3ccccc3)c2=O)CN(C(C)=O)CC4)cc1OC,inactive: -3.13%
6,COc1ccccc1NC(=O)c1ccc2c(Cl)c3c(nc2c1)CCCC3,inactive: -18.7%
7,CC1=C(c2ccc(C)c(C)c2)S(=O)(=O)N=C1N1CCC(C(=O)NCCc2ccc(Cl)cc2)CC1,inactive: -11.6%
8,COc1cc(Cl)c(C)cc1NC(=O)c1cc2ccc3cccnc3c2[nH]1,inactive: -1.87%
9,O=C(c1cc(=O)c2cc(Cl)ccc2o1)N(Cc1ccccc1)C1CCS(=O)(=O)C1 (stereo not given),inactive: -0.655%
10,CC(=O)OCc1cnc(C)c2oc(=O)c(C(=O)Nc3cccc(F)c3)cc12,inactive: 0%
11,Cc1nc(N2CCCC2)c2c(C(=O)Nc3cccc(Cl)c3C)c(C)oc2n1,inactive: -3.09%
12,Cc1ccc(-n2ncc3c(NCCCc4ccccc4)ncnc32)cc1,inactive: 12.2%
13,COc1ccc(NC(=O)CSc2nc3nc(C)c(Cc4ccc(C)cc4)c(C)n3n2)cc1OC,inactive: 7.56%
14,COc1ccc(Cl)cc1-n1nnc(-c2nc(-c3ccc4c(c3)OCO4)no2)c1C,inactive: 6.77%
15,COc1cc2[nH]c(=O)n(Cc3ccc(C(=O)NCc4ccccc4)cc3)c(=O)c2cc1OC,inactive: -13.8%
16,Cc1cccc(C)c1NC(=O)c1csc2c1CCCC2,inactive: -3.52%
17,COc1ccccc1NC(=O)C(=O)c1cc(C)n(-c2ccccc2F)c1C,inactive: -8.68%
18,Cc1ccc(NC(=O)Nc2nnc(SCC(=O)Nc3ccc(F)cc3F)s2)cc1,inactive: -1.79%
19,CCCCN1CC(c2nc3ccccc3n2CCCCOc2ccc(C)cc2C)CC1=O (stereo not given),inactive: -0.108%
20,Cc1ccc(-n2ncc3c(NCCCN4CCOCC4)ncnc32)cc1Cl,inactive: 3.92%
21,O=C(NCCCc1nc2ccccc2n1Cc1cccc(Cl)c1)c1ccco1,inactive: 5.56%
22,Cc1ccc2c(=O)cc(C(=O)Nc3ccc(S(=O)(=O)Nc4onc(C)c4C)cc3)oc2c1C,inactive: 2.02%
23,O=C(CSc1oc(-c2ccccc2)nc1S(=O)(=O)c1ccc(Cl)cc1)c1ccccc1,inactive: -1.41%
24,Cc1ccc(-n2cc(C(=O)Oc3ccc(F)cc3)c3ccccc3c2=O)cc1,inactive: -11.7%

row,Structure (SMILES),"activity change, negative = inhibition"
1,O=C(CC1C(=O)N(c2ccc(F)cc2)C(=O)N1Cc1ccc2c(c1)OCO2)Nc1ccc(Cl)cc1 (stereo not given),inactive: 4.56%
2,Cc1cc(C)nc(-n2nc(C)c3c2N(Cc2ccccc2)C(=O)CC3c2ccc(Cl)cc2)n1 (stereo not given),inactive: -1.72%
3,CCN(C(=O)Cn1c(=O)n(-c2ccccc2)c(=O)c2ccc(C(=O)NCc3ccc4c(c3)OCO4)cc21)c1cccc(C)c1,inactive: -3.15%
4,Cc1c(Cl)cccc1NS(=O)(=O)c1ccc(-c2cnc(C3CC3)o2)cc1,inactive: -2.58%
5,Cc1cc(C)cc(OCC(=O)Nc2c(C(=O)c3ccccc3)oc3ccccc23)c1,inactive: -9.33%
6,O=C(CCn1c(=O)c2cccn2c2cccnc21)Nc1ccccc1C(F)(F)F,inactive: -5.53%
7,CCC(=O)N1c2ccccc2CC1C(=O)NCc1cc(OC)ccc1OC (stereo not given),inactive: -5.68%
8,CC(C)c1ccc(NC(=O)c2cc(S(=O)(=O)N(C)C3CCCCC3)ccc2F)cc1,inactive: 0.931%
9,CCCCn1cnc2cc(NCc3ccc(OCC)cc3)ccc21,inactive: -4.61%
10,CCOc1ccc(NC(=O)c2cc(S(=O)(=O)N3CCc4ccccc43)ccc2F)cc1,inactive: -7.62%
11,O=C(CCC(=O)c1ccc(F)cc1)Nc1ccc(Cl)cc1,inactive: -1.53%
12,CCn1cc(S(=O)(=O)c2cccc(C)c2)c(=O)c2cc(F)c(N3CCCC(C)C3)cc21 (stereo not given),inactive: -6.22%
13,O=C(c1ccc2c(c1)N(Cc1ccccc1F)C(=O)c1ccccc1S2(=O)=O)N1CCN(c2ccccn2)CC1,inactive: 0.498%
14,CCOc1ccc(CNC(=O)C2CCCCN2S(=O)(=O)c2ccc(F)cc2)cc1OC (stereo not given),inactive: 1.22%
15,COc1ccc(-c2nc3c(c(SC)n2)Cc2c(CO)cnc(C)c2O3)cc1,inactive: 2.26%
16,CCn1c(=O)c2cc(C(=O)NCCCN3CCN(C)CC3)sc2c2ccccc21,inactive: 1.47%
17,Cc1ccccc1NC(=O)c1c(C)oc2ccc(O)c(CN3CCOCC3)c12,inactive: -9.27%
18,O=C(CSc1n[nH]c(-c2ccccc2Cl)n1)NCc1ccc(F)cc1,inactive: 5.87%
19,NC(=O)c1c(NC(=O)CS(=O)(=O)c2ccc(Cl)cc2)sc2c1CCCCC2,inactive: -1.24%
20,COc1ccc(S(=O)(=O)NCc2nc3nc(C)cc(C)n3n2)cc1,inactive: -1.68%
21,Cc1ccc(Nc2c(-c3ccc(Br)o3)nc3ccccn23)cc1,inactive: 0.49%
22,O=C(NCCCN1CCN(c2cccc(Cl)c2)CC1)c1sc2ncccc2c1-n1cccc1,inactive: -10.6%
23,Cc1ccc(-c2nc(CS(=O)(=O)CC(=O)Nc3ccc(Br)cc3F)c(C)o2)cc1,inactive: -12.2%
